Measurements reported in patent US20130280222.

Columns and labels:
Assay in all cases: cell_activity
[1] = system: GFP TALEN left (artificial); details: gene addition (dNGFR donor) in mouse primary fibroblasts, as pair, 18 bp spacer
[2] = molecular target: beta-globin TALEN left (artificial) (UniProt Q56830); details: Cel-I, alleles mutated in HEK-293T; as pair
[3] = molecular target: beta-globin TALEN right (artificial) (UniProt Q56830); details: Cel-I, alleles mutated in HEK-293T; as pair
[4] = system: GFP TALEN right (artificial); details: gene addition (dNGFR donor) in mouse primary fibroblasts, as pair, 18 bp spacer
[5] = molecular target: gamma-globin TALEN left (artificial) (UniProt Q56830); details: Cel-I, target sites mutated; as pair
[6] = system: gamma-globin TALEN right (artificial); details: Cel-I, target sites mutated; as pair

## TGCCCGAAGGCTACGT (double strand) [GFP TALEN left half-site (sense)]
[1]
  activity: 1.9%

## human beta-globin locus, just 3' of sickle mutation
[2]
  activity: 27%
[3]
  activity: 27%

## TTGCCGTCGTCCTTGAAG (double strand) [GFP TALEN right half-site (antisense)]
[4]
  activity: 1.9%

## human gamma-globin locus
[5]
  activity: 44%
[6]
  activity: 44%
